Test results reported in PubChem BioAssay AID651820 (National Center for Advancing Translational Sciences (NCATS), 2012).
The whole screen tested about 340,000 compounds, of which about 12,000 (3.5%) were called active. Inconclusive results, whose numbers are uncertain, are shown with a selection of clear calls. The call rests on the fitted dose curve; in most records, active means well fitted inhibition curve with a large enough effect; inconclusive means small, poorly fitted or top-dose-only effect, or another doubt; inactive means no such curve, though single readings can be large or run the other way. Potencies of inconclusive entries are left out as doubtful fits.

Assay: qHTS Assay for Inhibitors of Hepatitis C Virus (HCV)
Conditions: Huh7.5.1 HCVcc-Cre (HCVcc is cell-culture hepatitis C virus) infection, luciferase reporter, 44 h; series mostly up to 41.8 µM
Method in brief: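 Infectious HCVcc-Cre (~0.5 moi) was added to cells just after compound, with cells seeded 4 h earlier at 1,000 per well. Luciferase activity after 44 h culture reported infection; substrate was incubated 15 min at room temperature before reading.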
Potency means the concentration at half of the fitted maximal effect; tags describe the fitted curve by direction and shape.

Structure (SMILES)	Potency
CCOc1cc(N2CCOCC2)c(OCC)cc1NC(=O)c1ccc(OCc2c(C)noc2C)c(OC)c1	inconclusive [inhibitor, full curve, poor fit]
Cc1ccc(C2OC3=C(C(=O)CC(C)(C)C3)C(N)=C2C#N)o1 (stereo not drawn)	inconclusive [inhibitor, single point]
Cc1cc(C)c2[nH]c(=O)c(CN(CC3CCCO3)C(=S)NCc3ccco3)cc2c1 (stereo not drawn)	inconclusive [inhibitor, partial curve]
CCOC(=O)c1c(NC(=O)c2cccs2)sc(C)c1CC	active: 8.91 µM
Clc1cccc(Cl)c1/C=N/Nc1c(Cl)cncc1Cl	inconclusive [inhibitor, full curve, poor fit]
CN(CC(=O)Nc1ccc(Cl)c(C(F)(F)F)c1)C(=O)C1CCN(C(=O)c2ccc(Cl)cc2)CC1	active: 11.2 µM
O=C1c2ccccc2NC(c2cccc([N+](=O)[O-])c2)N1O (stereo not drawn)	inconclusive [inhibitor, single point]
COc1ccc(C(=O)Nc2ccc3c(c2)nc(CN2CCCC2)n3C)cc1	inactive
CCCn1c(N)c(C(=O)CSc2nnc(C3CC3)n2Cc2ccccc2)c(=O)n(C)c1=O	inconclusive [inhibitor, full curve]
CCc1ccc(C(=O)Nc2ccc(OC)c(S(=O)(=O)N3CCOCC3)c2)cc1	active: 8.91 µM
COc1ccccc1NS(=O)(=O)c1cc(C(=O)NCc2cccnc2)ccc1C	inconclusive [inhibitor, partial curve]
CCC(=O)NC(c1ccc(C)cc1)c1cc([N+](=O)[O-])c2cccnc2c1O (stereo not drawn)	inconclusive [inhibitor, single point]
CC(C)Oc1ccc(CNC(=O)CC(c2ccccc2)c2cc(Cl)ccc2O)cc1 (stereo not drawn)	inconclusive [inhibitor, single point]
O=C(O)Cc1ccc(NC(=O)Nc2ccc3c(c2)OCO3)cc1	inactive
CCCCN(CC)C(=O)c1cc2cc3ccc(OC)cc3nc2o1	inconclusive [inhibitor, partial curve, poor fit]
COc1ccc(OCCSc2ncnc3nc[nH]c23)cc1	inconclusive [inhibitor, single point]
COC(=O)CN(C(=S)Nc1ccc(F)cc1)C1CC(=O)N(c2ccc(OC)cc2)C1=O (stereo not drawn)	inactive
COc1cc(C2C(C#N)=C(N)OC3=C2C(=O)CCC3)cc(OC)c1OC(=O)N1CCOCC1 (stereo not drawn)	inactive
O=C(CN1CCN(S(=O)(=O)c2cccc(Br)c2)CC1)NCCc1cccs1	inconclusive [inhibitor, single point]
CN(Cc1ccccn1)Cc1cn(Cc2ccccc2)nc1-c1ccc2c(c1)OCO2	inconclusive [inhibitor, single point]
O=C(/C=C/c1ccccc1Cl)c1ccc[nH]1	inconclusive [inhibitor, partial curve]
COc1ccc(CNCCC(c2ccccc2)c2ccc3c(c2)OCO3)cc1 (stereo not drawn)	active: 10 µM

Structure (SMILES)	Potency
COc1ccc(-c2oc(=O)c3cc(OC)c(OC)cc3c2-c2ccc3c(c2)OCO3)cc1	inconclusive [inhibitor, partial curve]
Cn1c(/C=C/c2ccc([N+](=O)[O-])o2)nc2ccccc2c1=O	active: 2 µM
C/C(=N\O)C(C)(C)Nc1cccc(Br)c1	inconclusive [inhibitor, single point]
COc1ccccc1NC1=C(C)C(=O)CC1	inconclusive [inhibitor, single point]
COCCN1Cc2cccc(C(=O)Nc3cccnc3)c2C1=O	inconclusive [inhibitor, single point]
Cc1ccc(S(=O)(=O)N2CCCCC2)cc1NC(=O)CN1CC=C(c2ccccc2)CC1	inconclusive [inhibitor, partial curve]
CN(Cc1ccccc1)C(=O)c1cccc(NC(=O)Cc2ccc(NC(=O)C3CCN(C(=O)C4CCC4)CC3)cc2)c1	active: 14.1 µM
O=C(N/N=C/c1cccn1-c1ccc([N+](=O)[O-])cc1)c1cccnc1	inconclusive [inhibitor, partial curve, poor fit]
Cc1cc(=O)oc2c3c4c(cc12)OCCN4CCC3	inconclusive [inhibitor, partial curve]
CC(C)N1CCc2c(sc(NC(=O)c3ccc(S(=O)(=O)N4CCc5ccccc54)cc3)c2C(N)=O)C1	active: 11.2 µM
O=C(CN1C(=O)CSCC1=O)NCc1ccc(F)cc1	inactive
N#Cc1c(N)n(Cc2ccccc2)c(=O)c2cc([N+](=O)[O-])ccc12	inconclusive [inhibitor, single point]
CCSc1n[nH]c(=O)[nH]c1=O	inconclusive [inhibitor, single point]
CN1CCN(Cn2cc(/C=C/C(=O)c3ccccc3)c3ccccc32)CC1	inconclusive [inhibitor, partial curve]
CC(=O)c1c(C)[nH]c(C(=O)OCC(=O)Nc2sc3c(c2C#N)CCCC3)c1C	active: 12.6 µM
CCOC(=O)N/N=C\c1ccc([N+](=O)[O-])s1	inconclusive [inhibitor, single point]
COc1cc(C(=O)OCC(=O)Nc2ccc(S(=O)(=O)N3CCCC3)cc2)cc(OC)c1OC	inconclusive [inhibitor, partial curve]
CC(=O)c1cccc(N(C(=O)CNC(=O)c2ccco2)C(C(=O)NCc2ccco2)c2ccccc2)c1 (stereo not drawn)	inconclusive [inhibitor, single point]
COc1ccccc1N1CCN(CCC(=O)Nc2ccc3c(c2)OCO3)CC1	inactive
O=C(Nc1cccc(S(=O)(=O)N2CCOCC2)c1)c1cn(-c2ccccc2)nc1-c1ccc(F)cc1	inconclusive [inhibitor, single point]
CCOc1ccc(CCNC(=O)CSc2cc(=O)n(C)c3cc(Cl)ccc23)cc1OCC	inactive
